Assay results reported in PubChem BioAssay (NCATS).
The inconclusive results got no clear call from the source; some entries with a clear call stand among them for comparison. For some of these results: Potencies beside an inconclusive call are fits to weak or partial responses and may not hold up. The source made the active and inactive calls. The call rests on the fitted dose curve; in most records, active means well fitted curve in the direction sought with a large enough effect; inconclusive means small, poorly fitted or top-dose-only effect, or another doubt; inactive means no such curve, though single readings can be large; an effect the other way counts as inactive or inconclusive.

How the values were obtained:
[1] = UWB1.289 Cancer Cell Toxicity qHTS against the NCATS CANVASS Library (AID 1347347); further: potency means the concentration at half of the fitted maximal effect; nearly all actives have a fitted effect of over 60% in size
Method in brief: (§1)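 Per well, 1000 cells; exposure 72 h with compound at 11 final concentrations; readout CellTiter-Glo luminescence.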

[2] = SW1088 Cancer Cell Toxicity qHTS against the NCATS CANVASS Library (AID 1347350); further: nearly all actives have a fitted effect of over 75% in size; further: potency means the concentration at half of the fitted maximal effect
Method in brief: as §1

[3] = A2780 Cisplatin Sensitive Ovarian Cancer Cell Toxicity qHTS against the NCATS CANVASS Library (AID 1347353); further: potency means the concentration at half of the fitted maximal effect; nearly all actives have a fitted effect of over 60% in size
Method in brief: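 Luminescent ATP content (ATPLite, 10 min at room temperature) served as the read-out after cells had been exposed to compounds for 72 hours at 37 °C. Dosing followed an 11-point concentration series.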

[4] = test system: NAD(P)H diaphorase (Clostridium kluyveri); assay: Diaphorse counterscreen qHTS: Assay Interference Panel against the NCATS CANVASS Library (AID 1347362); further: potency means the concentration at half of the fitted maximal effect
Method in brief: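 Counterscreen for coupling-enzyme interference: resorufin fluorescence from resazurin/NADH turnover, read after 5 min at room temperature. Compounds were tested over an 11-point series after 15 min dark preincubation with diaphorase in PBS-Tween.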

[5] = SDT Cancer Cell Toxicity qHTS against the NCATS CANVASS Library (AID 1347365); further: nearly all actives have a fitted effect of over 60% in size; further: potency means the concentration at half of the fitted maximal effect;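 on activity change, negative = cytotoxicity: SDT canine glioma cells 500 per well in 1536 well plates; on the % scale 0 is the no-effect control and ±100 the full control effect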
Method in brief: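 qHTS, SDT dog glioma line, 500 cells/well; cpds 11 pts; 72 hr, 37C, 5% CO2; CellTiterGlo ATP luminescence.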

[6] = KB-3-1 Cancer Cell Toxicity qHTS against the NCATS CANVASS Library (AID 1347366); further: on the % scale 0 is the no-effect control and ±100 the full control effect; nearly all actives have a fitted effect of over 75% in size
Method in brief: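 Seed KB-3-1 cells at 500/well in DMEM with 10% FBS, add compounds, incubate 72 hr at 37C and 5% CO2, then add CellTiter-Glo and read luminescence after 10 minutes.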

[7] = qHTS for Hypoxia signaling pathway (HIF-1) antagonists against the NCATS CANVASS Library (AID 1347374); further: nearly all actives have a fitted effect of over 60% in size; further: potency means the concentration at half of the fitted maximal effect;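 on activity change, negative = inhibition: HRE-bla ME-180 cells stimulated with cobalt chloride to stabilize HIF-1alpha; on the % scale 0 is the no-effect control and ±100 the full control effect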
Method in brief: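 HRE-bla ME-180 cells in medium with 0.5% dialyzed FBS received compounds (11-point series) plus CoCl2 (60 uM addition stock) for 17 hrs at 37C. Beta-lactamase activity read with CCF4 (405 nm ex, 460/530 nm em); CellTiter-Glo viability measured in same wells.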

[8] = qHTS for inhibitors of ER calcium dysfunction: SERCaMP assay screened against the NCATS CANVASS Library (AID 1347393); conditions: SH-SY5Y GLuc-SERCaMP (Gaussia luciferase released on ER calcium loss) secretion, thapsigargin, luminescence; activity change, negative = inhibition: at 76.6 µM (top of the series) unless noted; further: nearly all actives have a fitted effect of over 40% in size; further: potency means the concentration at half of the fitted maximal effect;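 on activity change, negative = inhibition: on the % scale 0 is the no-effect control and ±100 the full control effect; lower secreted reporter signal means inhibitor of ER calcium depletion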
Method in brief: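 Thapsigargin-induced ER calcium depletion drives GLuc-SERCaMP secretion from SH-SY5Y cells; compounds given 16 h beforehand were scored by lowered coelenterazine luminescence after 4 h challenge.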

[9] = Vero-766 cells viability qHTS against the NCATS CANVASS Library: Counterscreen for Zika virus inhibition assay (AID 1347394); conditions: Vero 766 viability, CellTiter-Glo luminescence, 72 h; activity change, negative = cytotoxic: at 46.1 µM (top of the series)
Method in brief: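 This cytotoxicity counterscreen uses African green monkey Vero 766 cells in the absence of Zika virus. Compounds are incubated with cells for 72 h, and ATP-based luminescence reports viability.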

[10] = U-118MG Cancer Cell Toxicity qHTS against the NCATS CANVASS Library (AID 1347351); further: potency means the concentration at half of the fitted maximal effect; on activity change, negative = cytotoxicity: on the % scale 0 is the no-effect control and ±100 the full control effect
Method in brief: as §1

[11] = G06 Cancer Cell Toxicity qHTS against the NCATS CANVASS Library (AID 1347368)
Method in brief: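 Dog G06 glioma line, 500 cells/well; cpds pin-transferred, 11-pt; 72 hr, 37C/5% CO2; CellTiterGlo luminescence (ATP) endpoint.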

[12] = DH5-alpha competent E. coli microbial cell viability qHTS against the NCATS CANVASS Library (AID 1347377); conditions: viability signal change, negative = cytotoxic: at 46.1 µM (top of the series); further: potency means the concentration at half of the fitted maximal effect; on viability signal change, negative = cytotoxic: 0% is about no effect
Method in brief: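 qHTS, 11-pt; E. coli DH5-alpha, 0.2 OD; o/n 37C/5% CO2; BacTiter-Glo, 20 min RT; luminescence.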

[13] = qHTS for activators of Nrf2/ARE signaling pathway screened against the NCATS CANVASS Library (AID 1347391); further: nearly all actives have a fitted effect of over 60% in size; further: potency means the concentration at half of the fitted maximal effect; on activation: 0% is about no effect
Method in brief: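 Plate ARE-bla HepG2 cells at 2000/well and let them settle 5 h. Pin-transfer compounds in DMSO, incubate 16 h at 37C. Load CCF4 for 2 h at room temperature and read blue/green fluorescence.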

[14] = qHTS for activators of dead-cell proteases activity screened against the NCATS CANVASS Library (AID 1347392);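 further: luminescence from protease leaking out of membrane-damaged cells cleaving impermeant substrate; 0% is about no effect; rising signal means more cytotoxicity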
Method in brief: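 Compounds are pin-transferred onto attached HepG2 cells, giving 11 final concentrations. After 5 h at 37C, AAF-aminoluciferin reagent is added and luminescence is recorded at room temperature.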

[15] = qHTS for inhibitors of Wild type Zika virus screened against the NCATS CANVASS Library (AID 1347396)
Method in brief: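 Vero 766 (African green monkey) cells, 1000 per well, attached overnight, then compounds were added in an 11-point series before wild-type Zika virus infection. After 72 h at 37C, cell viability was read as CellTiter Glo luminescence.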

[16] = KB-8-5-11 Cancer Cell Toxicity qHTS against the NCATS CANVASS Library (AID 1347364); conditions: activity change, negative = toxicity: at 46.1 µM (top of the series); further: potency means the concentration at half of the fitted maximal effect; nearly all actives have a fitted effect of over 75% in size
Method in brief: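 Plate 500 KB-8-5-11 cells per well in DMEM + 10% FBS, add compounds by pin transfer, incubate 72 hr at 37C. Add CellTiter-Glo, wait 10 minutes at room temperature, read luminescence.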

[17] = MCF7 Cancer Cell Toxicity qHTS against the NCATS CANVASS Library (AID 1347369); conditions: activity change, negative = cytotoxicity: at 46 µM (top of the series); further: on the % scale 0 is the no-effect control and ±100 the full control effect
Method in brief: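 Cytotoxicity is measured by ATP content: MCF7 cells at 500 per well receive an 11-point compound series and, after 72 hr at 37C, are lysed with CellTiterGlo for luminescence.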

[18] = target: Nuclear receptor subfamily 1 group I member 3 (Homo sapiens) (UniProt Q14994); assay: qHTS for Constitutive Androstane Receptor (CAR) Agonist screened against the NCATS CANVASS Library (AID 1347373);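 further: every well also contained 1.5 µM PK11195 alongside the test compound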; further: potency means the concentration at half of the fitted maximal effect; on activation: 0% is about no effect
Chain of UniProt Q14994 (Q14994 whole entry, looked up): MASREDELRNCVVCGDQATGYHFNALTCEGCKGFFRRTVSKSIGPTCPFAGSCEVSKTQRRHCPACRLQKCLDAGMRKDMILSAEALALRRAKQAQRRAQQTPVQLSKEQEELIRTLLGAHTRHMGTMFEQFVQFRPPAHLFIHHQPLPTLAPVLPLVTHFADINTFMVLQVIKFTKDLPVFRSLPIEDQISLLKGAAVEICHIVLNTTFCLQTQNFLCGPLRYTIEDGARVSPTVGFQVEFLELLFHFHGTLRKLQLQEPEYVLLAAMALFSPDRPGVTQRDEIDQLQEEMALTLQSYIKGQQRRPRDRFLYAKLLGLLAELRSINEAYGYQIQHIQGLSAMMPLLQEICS
Method in brief: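 HepG2-hCAR-CYP2B6 cells, 2500/well, attached 4hr; cpd + PK11195 1.5uM final; 24hr 37C 5% CO2. CellTiter-Fluor viability read, then ONE-Glo luminescence for CAR activation.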

[19] = qHTS for Antimalaria activity screened against the NCATS CANVASS Library (AID 1347380);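 further: Plasmodium falciparum strain Dd2 asexual parasites grown in red blood cells; nearly all actives have a fitted effect of over 40% in size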
Method in brief: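 Dd2 strain, infected erythrocytes 2.5% Hct final / 0.3% parasitemia. 11-pt qHTS titration, 72 h, 37C, 5% O2, 5% CO2. Lysis buffer + SYBR Green, 18 h, fluorescence 485/535 nm.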

[20] = qHTS assay for small molecule disruptors of mitochondrial membrane potential screened against the NCATS CANVASS Library (AID 1347389)
Method in brief: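 HepG2, 2,000 cells/well, attached overnight; compound 1 hr, 37C, 5% CO2; Mito-MPS dye 30 min, 37C; fluorescence 535 nm (monomer) and 590 nm (aggregate); decreased 590/535 ratio = depolarization.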

[21] = Panc-1005 Cancer Cell Toxicity qHTS against the NCATS CANVASS Library (AID 1347349); further: nearly all actives have a fitted effect of over 60% in size; further: potency means the concentration at half of the fitted maximal effect
Method in brief: as §1

[22] = HEK-293 Cancer Cell Toxicity qHTS against the NCATS CANVASS Library (AID 1347355); further: nearly all actives have a fitted effect of over 65% in size; further: potency means the concentration at half of the fitted maximal effect
Method in brief: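 Luminescent ATP read-out (CellTiter-Glo, 15min at room temperature) measures survival after cells face an 11-point compound series for 72 hours at 37 degrees C/5% CO2.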

[23] = HEK293 18hr Apoptosis Induction qHTS against the NCATS CANVASS Library (AID 1347357); further: 0% is about no effect
Method in brief: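 Luminescent caspase-3/7 signal is measured in HEK293 cells exposed for 18 hours to an 11-point concentration series; doxorubicin serves as the plate control.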

[24] = target: Luciferin 4-monooxygenase (Photinus pyralis) (UniProt P08659); assay: Firefly luciferase counterscreen qHTS: Assay Interference Panel against the NCATS CANVASS Library (AID 1347363); further: potency means the concentration at half of the fitted maximal effect; on activity change, negative = inhibition: 0% is about no effect
Chain of UniProt P08659 (P08659 whole entry, looked up): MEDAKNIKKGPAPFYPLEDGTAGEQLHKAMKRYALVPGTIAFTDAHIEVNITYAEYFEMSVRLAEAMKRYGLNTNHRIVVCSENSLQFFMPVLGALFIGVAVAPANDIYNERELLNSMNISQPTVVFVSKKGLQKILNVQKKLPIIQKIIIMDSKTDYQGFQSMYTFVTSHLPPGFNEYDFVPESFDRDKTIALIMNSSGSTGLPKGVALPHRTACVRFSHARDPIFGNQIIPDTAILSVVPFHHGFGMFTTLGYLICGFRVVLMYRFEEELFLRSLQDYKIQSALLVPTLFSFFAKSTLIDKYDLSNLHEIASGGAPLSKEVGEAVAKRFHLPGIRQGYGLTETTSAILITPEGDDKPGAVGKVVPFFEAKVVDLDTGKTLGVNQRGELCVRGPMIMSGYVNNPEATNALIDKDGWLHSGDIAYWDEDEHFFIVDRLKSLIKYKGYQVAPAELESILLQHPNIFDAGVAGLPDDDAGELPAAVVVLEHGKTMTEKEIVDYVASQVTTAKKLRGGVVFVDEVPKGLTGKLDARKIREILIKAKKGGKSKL
Method in brief: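 Luminescence inhibition readout: compounds (11-point qHTS) sat 15 min at room temperature with substrate mix (0.013 mM luciferin and ATP), then firefly luciferase was added and signal read 5 min later.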

[25] = qHTS for Inflammasome Signaling Inhibitors: IL-1-beta AlphaLISA screen against the NCATS CANVASS Library (AID 1347379);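 further: human THP-1 cells primed with LPS then triggered with ATP; secreted IL-1B measured as AlphaLISA emission at 615 nm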;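 on activity change, negative = inhibition: on the % scale 0 is the no-effect control and ±100 the full control effect; lower signal means less IL-1B release which is the wanted effect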
Method in brief: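 THP-1 cells pretreated 1 hr with compound (up to 57.5 uM final), then stimulated with LPS (250 ng/mL final) and ATP (1.25 mM final). Secreted IL-1B measured by AlphaLISA after 16 hr; glyburide as positive control.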

[26] = qHTS for H2AX Agonists against the NCATS CANVASS Library (AID 1347378);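 further: phospho-H2AX S139 level in CHO-K1 lysates by TR-FRET emission ratio; 0% is about no effect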
Method in brief: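 Following overnight seeding, CHO-K1 cells are incubated with a concentration series of compound for 3 hr at 37C (final DMSO 0.76%). Cells are then lysed, detection antibodies added, and emission ratio 665/620 nm recorded after 24 hr at room temperature.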

[27] = qHTS for Activators of p53 Stress Response Pathway screened against the NCATS CANVASS Library (AID 1347388); further: potency means the concentration at half of the fitted maximal effect
Method in brief: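 Beta-lactamase reporter driven by p53 response elements in HCT-116 cells, read as the 460 nm/530 nm emission ratio after CCF4 loading, following 16 h of exposure to an 11-point series. Cell viability was measured in the same wells by CellTiter-Glo luminescence.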

[28] = Viability qHTS for inhibitors of the SERCaMP assay screened against the NCATS CANVASS Library (AID 1347400); further: potency means the concentration at half of the fitted maximal effect; nearly all actives have a fitted effect of over 70% in size
Method in brief: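 SH-SY5Y SERCaMP MJH297 cells, 1000/well; 4 h settle, 37C/5% CO2; pin-transferred cpds; 48 h; CellTiter-Glo lum. Pos ctrl bortezomib 0.0001 - 4.6 uM.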
Tags describe the fitted curve by direction and shape.

O=c1cc(-c2ccc(O)c(O[C@@H]3O[C@H](CO)[C@@H](O)[C@H](O)[C@H]3O)c2)oc2cc(O[C@@H]3O[C@H](CO)[C@@H](O)[C@H](O)[C@H]3O)cc(O)c12
Potency [1]: inconclusive: 16.7 µM [cytotoxic, single point]
Potency [2]: inactive
Potency [3]: inconclusive: 33.2 µM [cytotoxic, single point]
Potency [4]: inconclusive: 21.6 µM [inhibitor, partial curve, poor fit]
Potency [5]: inconclusive: 29.6 µM [cytotoxic, partial curve, poor fit]
Potency [6]: inactive
Potency [7]: inactive
Potency [8]: inactive
Potency [9]: inactive

CN1CC[C@@]2([C@@]34CCN(C)[C@@H]3Nc3ccccc34)c3ccccc3N[C@@H]12
Potency [10]: inactive
Potency [11]: inconclusive: 2.96 µM [cytotoxic, full curve]
Potency [12]: inconclusive: 166 nM [cytotoxic, full curve, poor fit]
Potency [13]: inactive
Potency [14]: inactive
Potency [8]: inconclusive: 27.2 µM [inhibitor, partial curve]
Potency [15]: inactive

COc1ccc2oc3c(OC)c(OC)c(OC)c(OC)c3c(=O)c2c1
Potency [16]: inconclusive: 4.81 µM [cytotoxic, partial curve, poor fit]
activity change, negative = cytotoxicity [5]: inactive: -18.8% [at 9.19 µM]
activity change, negative = cytotoxicity [17]: inactive: 0.434% [at 9.17 µM]
activation [18]: inactive: 7.45% [at 9.19 µM]
outcome [12]: inactive [at 9.19 µM]
activity change, negative = inhibition [19]: inactive: -46.5% [at 5.73 µM]
Potency [20]: inconclusive: 5.42 µM [inhibitor, partial curve, poor fit]

C[C@@H](CCC[C@]1(C)C(=O)C=C[C@]23C[C@H]4C[C@H](O[C@@]4(C)C2)C31)C(=O)N[C@@H](CO)C(=O)O (stereo partly specified)
Potency [21]: inactive
Potency [22]: inactive
Potency [23]: inactive
Potency [24]: inactive
Potency [25]: inactive
Potency [13]: inconclusive: 33.1 µM [activator, single point]

COc1ccc(/C=C2\COc3cc(O)ccc3C2=O)cc1
Potency [21]: inconclusive: 29.8 µM [cytotoxic, single point]
Potency [2]: inconclusive: 29.8 µM [cytotoxic, single point]
Potency [10]: inconclusive: 26.6 µM [cytotoxic, partial curve, poor fit]
Potency [22]: inconclusive: 33.2 µM [cytotoxic, single point]
Potency [24]: active: 485 nM
Potency [16]: inconclusive: 33.2 µM [cytotoxic, single point]
Potency [5]: inconclusive: 37.2 µM [cytotoxic, partial curve, poor fit]
Potency [18]: inconclusive: 6.6 µM [activator, full curve]
Potency [7]: inconclusive: 29.8 µM [inhibitor, single point]
Potency [12]: inactive
Potency [26]: inactive
Potency [25]: inconclusive: 30.6 µM [inhibitor, single point]
Potency [27]: inconclusive: 33.1 µM [activator, partial curve, poor fit]
Potency [13]: active: 8.31 µM
Potency [8]: inconclusive: 24.3 µM [inhibitor, partial curve]
Potency [15]: inconclusive: 36.9 µM [inhibitor, single point]
Potency [28]: inconclusive: 48 µM [cytotoxic, partial curve, poor fit]
